# This is one part of the list.
# B1: SBD-G4S3-SBD (protein)
# chain: MASIPSSASVQLDSYNYDGSTFSGKIYVKNIAYSKKVTVVYADGSDNWNNNGNIIAASFSGPISGSNYEYWTFSASVKGIKEFYIKYEVSGKTYYDNNNSANYQVSTGGGGSGGGGSGGGGSEFASIPSSASVQLDSYNYDGSTFSGKIYVKNIAYSKKVTVVYADGSDNWNNNGNIIAASFSGPISGSNYEYWTFSASVKGIKEFYIKYEVSGKTYYDNNNSANYQVST
# Experiments:
# Experiment in all cases: glycan array binding signal (z-score within array); higher = stronger binding
# Conditions in all cases: glycan notation: IUPAC condensed, linker removed
# [1] = molecular target: GalNAc(b1-4)GlcNAc(b1-2)Man
# Procedure, shortened: (§1)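 Columns mapping to the same glycan were averaged after glycan names were converted to IUPAC-condensed notation. The data come from 3228 arrays in the Consortium for Functional Glycomics database, limited to those with an available protein sequence. Binding is reported as a within-array Z-score averaged across arrays of one protein sequence and across linkers.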
# [2] = molecular target: GalNAc(b1-4)GlcNAc(b1-2)Man(a1-3)[GalNAc(b1-4)GlcNAc(b1-2)Man(a1-6)]Man(b1-4)GlcNAc(b1-4)GlcNAc
# Procedure, shortened: as §1
# [3] = molecular target: GalNAc(b1-4)GlcNAc(b1-3)GalNAc(b1-4)GlcNAc
# Procedure, shortened: as §1
# GalNAc(b1-4)GlcNAc6S = molecular target: GalNAc(b1-4)GlcNAc6S
# Procedure, shortened: as §1
# GalNAc(b1-6)GalNAc = molecular target: GalNAc(b1-6)GalNAc
# Procedure, shortened: as §1
# GalNAc3S(b1-4)GlcNAc = molecular target: GalNAc3S(b1-4)GlcNAc
# Procedure, shortened: as §1
# GalNAc3S(b1-4)GlcNAc3S = molecular target: GalNAc3S(b1-4)GlcNAc3S
# Procedure, shortened: as §1
# [4] = molecular target: GalNAc3S(b1-4)[Fuc(a1-3)]GlcNAc
# Procedure, shortened: as §1
# GalNAc4S6S(b1-4)GlcNAc = molecular target: GalNAc4S6S(b1-4)GlcNAc
# Procedure, shortened: as §1
# GalNAc6S(b1-4)GlcNAc = molecular target: GalNAc6S(b1-4)GlcNAc
# Procedure, shortened: as §1
# Glc(a1-4)Glc = molecular target: Glc(a1-4)Glc
# Procedure, shortened: as §1
# [5] = molecular target: Glc(a1-4)Glc(a1-4)Glc(a1-4)Glc
# Procedure, shortened: as §1
# Glc(a1-6)Glc(a1-6)Glc = molecular target: Glc(a1-6)Glc(a1-6)Glc
# Procedure, shortened: as §1
# [6] = molecular target: Glc(a1-6)Glc(a1-6)Glc(a1-6)Glc
# Procedure, shortened: as §1
# Glc(b1-4)Glc = molecular target: Glc(b1-4)Glc
# Procedure, shortened: as §1
# Glc(b1-6)Glc = molecular target: Glc(b1-6)Glc
# Procedure, shortened: as §1
# GlcA(b1-3)Gal = molecular target: GlcA(b1-3)Gal
# Procedure, shortened: as §1
# GlcA(b1-3)GlcNAc = molecular target: GlcA(b1-3)GlcNAc
# Procedure, shortened: as §1
# GlcA(b1-6)Gal = molecular target: GlcA(b1-6)Gal
# Procedure, shortened: as §1
# [7] = molecular target: GlcA3S(b1-3)Gal(b1-4)GlcNAc(b1-2)Man
# Procedure, shortened: as §1
# [8] = molecular target: GlcA3S(b1-3)Gal(b1-4)GlcNAc(b1-3)Gal(b1-4)Glc
# Procedure, shortened: as §1
# [9] = molecular target: GlcNAc(a1-3)Gal(b1-4)GlcNAc
# Procedure, shortened: as §1
# [10] = molecular target: GlcNAc(a1-4)Gal(b1-3)GlcNAc
# Procedure, shortened: as §1
# [11] = molecular target: GlcNAc(a1-4)Gal(b1-4)GalNAc
# Procedure, shortened: as §1
# [12] = molecular target: GlcNAc(a1-4)Gal(b1-4)GlcNAc
# Procedure, shortened: as §1
# [13] = molecular target: GlcNAc(a1-4)Gal(b1-4)GlcNAc(b1-3)Gal(b1-4)Glc
# Procedure, shortened: as §1
# [14] = molecular target: GlcNAc(a1-4)Gal(b1-4)GlcNAc(b1-3)Gal(b1-4)GlcNAc
# Procedure, shortened: as §1
# [15] = molecular target: GlcNAc(a1-4)Gal(b1-4)GlcNAc(b1-3)Gal(b1-4)GlcNAc(b1-3)Gal(b1-4)GlcNAc
# Procedure, shortened: as §1
# [16] = molecular target: GlcNAc(a1-4)Gal(b1-4)GlcNAc(b1-3)Gal(b1-4)[Fuc(a1-3)]GlcNAc(b1-3)Gal(b1-4)[Fuc(a1-3)]GlcNAc
# Procedure, shortened: as §1
# [17] = molecular target: GlcNAc(a1-6)Gal(b1-4)GlcNAc
# Procedure, shortened: as §1
# [18] = molecular target: GlcNAc(b1-2)Gal(b1-3)GalNAc
# Procedure, shortened: as §1
# [19] = molecular target: GlcNAc(b1-2)Man(a1-3)[GlcNAc(b1-2)Man(a1-6)]Man(b1-4)GlcNAc(b1-4)GlcNAc
# Procedure, shortened: as §1
# [20] = molecular target: GlcNAc(b1-2)Man(a1-3)[GlcNAc(b1-2)Man(a1-6)]Man(b1-4)GlcNAc(b1-4)[Fuc(a1-6)]GlcNAc
# Procedure, shortened: as §1
# [21] = molecular target: GlcNAc(b1-2)Man(a1-3)[GlcNAc(b1-4)][GlcNAc(b1-2)Man(a1-6)]Man(b1-4)GlcNAc(b1-4)GlcNAc
# Procedure, shortened: as §1
# [22] = molecular target: GlcNAc(b1-2)Man(a1-3)[GlcNAc(b1-4)][GlcNAc(b1-2)Man(a1-6)]Man(b1-4)GlcNAc(b1-4)[Fuc(a1-6)]GlcNAc
# Procedure, shortened: as §1
# [23] = molecular target: GlcNAc(b1-2)[GlcNAc(b1-4)]Man(a1-3)[GlcNAc(b1-2)Man(a1-6)]Man(b1-4)GlcNAc(b1-4)GlcNAc
# Procedure, shortened: as §1
# [24] = molecular target: GlcNAc(b1-2)[GlcNAc(b1-4)]Man(a1-3)[GlcNAc(b1-4)][GlcNAc(b1-2)Man(a1-6)]Man(b1-4)GlcNAc(b1-4)GlcNAc
# Procedure, shortened: as §1
# [25] = molecular target: GlcNAc(b1-2)[GlcNAc(b1-4)]Man(a1-3)[GlcNAc(b1-4)][GlcNAc(b1-2)[GlcNAc(b1-6)]Man(a1-6)]Man(b1-4)GlcNAc(b1-4)GlcNAc
# Procedure, shortened: as §1
# [26] = molecular target: GlcNAc(b1-2)[GlcNAc(b1-4)]Man(a1-3)[GlcNAc(b1-4)][GlcNAc(b1-2)[GlcNAc(b1-6)]Man(a1-6)]Man(b1-4)GlcNAc(b1-4)[Fuc(a1-6)]GlcNAc
# Procedure, shortened: as §1
# [27] = molecular target: GlcNAc(b1-2)[GlcNAc(b1-6)]Man(a1-6)[GlcNAc(b1-2)Man(a1-3)]Man(b1-4)GlcNAc(b1-4)GlcNAc
# Procedure, shortened: as §1
# [28] = molecular target: GlcNAc(b1-2)[GlcNAc(b1-6)]Man(a1-6)[GlcNAc(b1-2)Man(a1-3)]Man(b1-4)GlcNAc(b1-4)[Fuc(a1-6)]GlcNAc
# Procedure, shortened: as §1
# [29] = molecular target: GlcNAc(b1-2)[GlcNAc(b1-6)]Man(a1-6)[GlcNAc(b1-4)][GlcNAc(b1-2)Man(a1-3)]Man(b1-4)GlcNAc(b1-4)GlcNAc
# Procedure, shortened: as §1
# GlcNAc(b1-3)Fuc = molecular target: GlcNAc(b1-3)Fuc
# Procedure, shortened: as §1
# GlcNAc(b1-3)Gal = molecular target: GlcNAc(b1-3)Gal
# Procedure, shortened: as §1
# [30] = molecular target: GlcNAc(b1-3)Gal(b1-3)GalNAc
# Procedure, shortened: as §1
binder,measurement,setting,value
B1,glycan array binding signal (z-score),[1],-0.336
same,glycan array binding signal (z-score),[2],0.931
same,glycan array binding signal (z-score),[3],-0.38
same,glycan array binding signal (z-score),GalNAc(b1-4)GlcNAc6S,-0.206
same,glycan array binding signal (z-score),GalNAc(b1-6)GalNAc,-0.383
same,glycan array binding signal (z-score),GalNAc3S(b1-4)GlcNAc,-0.382
same,glycan array binding signal (z-score),GalNAc3S(b1-4)GlcNAc3S,-0.383
same,glycan array binding signal (z-score),[4],-0.395
same,glycan array binding signal (z-score),GalNAc4S6S(b1-4)GlcNAc,-0.365
same,glycan array binding signal (z-score),GalNAc6S(b1-4)GlcNAc,-0.25
same,glycan array binding signal (z-score),Glc(a1-4)Glc,-0.323
same,glycan array binding signal (z-score),[5],5.44
same,glycan array binding signal (z-score),Glc(a1-6)Glc(a1-6)Glc,-0.409
same,glycan array binding signal (z-score),[6],-0.28
same,glycan array binding signal (z-score),Glc(b1-4)Glc,-0.278
same,glycan array binding signal (z-score),Glc(b1-6)Glc,-0.204
same,glycan array binding signal (z-score),GlcA(b1-3)Gal,-0.434
same,glycan array binding signal (z-score),GlcA(b1-3)GlcNAc,-0.221
same,glycan array binding signal (z-score),GlcA(b1-6)Gal,-0.148
same,glycan array binding signal (z-score),[7],-0.348
same,glycan array binding signal (z-score),[8],-0.303
same,glycan array binding signal (z-score),[9],-0.404
same,glycan array binding signal (z-score),[10],-0.314
same,glycan array binding signal (z-score),[11],-0.375
same,glycan array binding signal (z-score),[12],-0.29
same,glycan array binding signal (z-score),[13],-0.307
same,glycan array binding signal (z-score),[14],-0.255
same,glycan array binding signal (z-score),[15],-0.025
same,glycan array binding signal (z-score),[16],-0.205
same,glycan array binding signal (z-score),[17],-0.2
same,glycan array binding signal (z-score),[18],-0.379
same,glycan array binding signal (z-score),[19],-0.43
same,glycan array binding signal (z-score),[20],-0.351
same,glycan array binding signal (z-score),[21],-0.314
same,glycan array binding signal (z-score),[22],-0.413
same,glycan array binding signal (z-score),[23],-0.402
same,glycan array binding signal (z-score),[24],-0.391
same,glycan array binding signal (z-score),[25],-0.401
same,glycan array binding signal (z-score),[26],-0.39
same,glycan array binding signal (z-score),[27],-0.318
same,glycan array binding signal (z-score),[28],-0.335
same,glycan array binding signal (z-score),[29],-0.347
same,glycan array binding signal (z-score),GlcNAc(b1-3)Fuc,-0.358
same,glycan array binding signal (z-score),GlcNAc(b1-3)Gal,-0.365
same,glycan array binding signal (z-score),[30],-0.334

# — the supplement of paper PMC8728848
